{"source": "the supplement of paper PMC10126150", "note": "Sequences with one replicate were seen in a single cluster, so their values are uncertain.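 Note: ATP exposure 15 min at 22 °C before imaging.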"}
{"test_system": "ATP", "test": "switch fluorescence ratio, 500 uM ATP over buffer (Cy3 cluster intensity, sum of 5 cycles each) (fold (ratio)); higher = stronger signal-on switching upon ATP binding; sequences stand for … in TCGTCGGCAGCGTCAGATGTGTATAAGAGACAGTTTTTTTTTTTTTTTTTTTTTTTTT…TC", "details": "aptamer strand: ATP DNA aptamer (quencher-CACCTGGGGGAGTATTGCGGAGGAAGG + anchor), 100 nM annealed; ATP concentration: 500 uM; one replicate", "how_it_was_run": "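Imaging in selection buffer was followed by imaging after 15 min with 500 uM ATP at 22 °C, for Cy3-labelled switching-strand clusters annealed to 100 nM quencher-labelled ATP aptamer on a modified Illumina MiSeq flow-cell. Five of these buffer/ATP cycles ran, separated by NaOH stripping and re-annealing. The fluorescence ratio per cluster is summed target-cycle over summed buffer-cycle Cy3 intensity, averaged per switch-domain sequence; clusters outside 100-1000 RFU were removed.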"}
{"sequence": "GTAGTCAAGA", "switch fluorescence ratio": 1.14}
{"sequence": "GTAGTCCCTA", "switch fluorescence ratio": 0.998}
{"sequence": "GTAGTCTAAC", "switch fluorescence ratio": 1.05}
{"sequence": "GTAGTGATGG", "switch fluorescence ratio": 1.08}
{"sequence": "GTAGTGCGAG", "switch fluorescence ratio": 1.03}
{"sequence": "GTAGTGGTTT", "switch fluorescence ratio": 0.96}
{"sequence": "GTATAAAACG", "switch fluorescence ratio": 1.11}
{"sequence": "GTATAGCCTT", "switch fluorescence ratio": 0.989}
{"sequence": "GTATATCAGA", "switch fluorescence ratio": 0.989}
{"sequence": "GTATATTGTA", "switch fluorescence ratio": 1.06}
{"sequence": "GTATATTTTA", "switch fluorescence ratio": 0.985}
{"sequence": "GTATCATTTA", "switch fluorescence ratio": 0.955}
{"sequence": "GTATCGATAT", "switch fluorescence ratio": 1.01}
{"sequence": "GTATCTGTAT", "switch fluorescence ratio": 0.972}
{"sequence": "GTATCTTAAT", "switch fluorescence ratio": 0.948}
{"sequence": "GTATGATTAG", "switch fluorescence ratio": 1.01}
{"sequence": "GTATGCGTAA", "switch fluorescence ratio": 1.01}
{"sequence": "GTATGCTTTA", "switch fluorescence ratio": 0.949}
{"sequence": "GTATGGTGCG", "switch fluorescence ratio": 0.923}
{"sequence": "GTATGTACCA", "switch fluorescence ratio": 1.01}
{"sequence": "GTATTAACGT", "switch fluorescence ratio": 0.993}
{"sequence": "GTATTACAGT", "switch fluorescence ratio": 0.996}
{"sequence": "GTATTACTCG", "switch fluorescence ratio": 1.03}
{"sequence": "GTATTCAGGC", "switch fluorescence ratio": 0.939}
{"sequence": "GTATTCTCAC", "switch fluorescence ratio": 1.02}
{"sequence": "GTATTCTCAG", "switch fluorescence ratio": 0.972}
{"sequence": "GTATTGGCAG", "switch fluorescence ratio": 1.02}
{"sequence": "GTATTGTGGA", "switch fluorescence ratio": 0.973}
{"sequence": "GTATTTAGGT", "switch fluorescence ratio": 1.04}
{"sequence": "GTCAAATTGA", "switch fluorescence ratio": 1.04}
{"sequence": "GTCACACCA", "switch fluorescence ratio": 1.05}
{"sequence": "GTCACAGCCC", "switch fluorescence ratio": 1.04}
{"sequence": "GTCACGGGGT", "switch fluorescence ratio": 1.02}
{"sequence": "GTCACTGTAC", "switch fluorescence ratio": 1.77}
{"sequence": "GTCACTTTTC", "switch fluorescence ratio": 2.09}
{"sequence": "GTCAGCATAG", "switch fluorescence ratio": 1.26}
{"sequence": "GTCAGCGCGC", "switch fluorescence ratio": 1.04}
{"sequence": "GTCAGGGGTC", "switch fluorescence ratio": 1.06}
{"sequence": "GTCAGTAATA", "switch fluorescence ratio": 1.07}
{"sequence": "GTCAGTGGCG", "switch fluorescence ratio": 1.04}
{"sequence": "GTCAGTGTTT", "switch fluorescence ratio": 0.99}
{"sequence": "GTCATAAGAG", "switch fluorescence ratio": 1.05}
{"sequence": "GTCATAGCCA", "switch fluorescence ratio": 1.04}
{"sequence": "GTCATATCAA", "switch fluorescence ratio": 0.969}
{"sequence": "GTCATCTAGT", "switch fluorescence ratio": 0.977}
{"sequence": "GTCATCTTG", "switch fluorescence ratio": 0.951}
{"sequence": "GTCATTCGT", "switch fluorescence ratio": 0.975}
{"sequence": "GTCATTGGCG", "switch fluorescence ratio": 1.06}
{"sequence": "GTCATTTTGT", "switch fluorescence ratio": 0.985}
{"sequence": "GTCCAGCTGC", "switch fluorescence ratio": 1.08}
{"sequence": "GTCCATCTTG", "switch fluorescence ratio": 1.03}
{"sequence": "GTCCCAATTC", "switch fluorescence ratio": 3.28}
{"sequence": "GTCCCAGTGT", "switch fluorescence ratio": 2.32}
{"sequence": "GTCCCCGTGC", "switch fluorescence ratio": 1.39}
{"sequence": "GTCCCGTATA", "switch fluorescence ratio": 1.04}
{"sequence": "GTCCGGCATT", "switch fluorescence ratio": 1.03}
{"sequence": "GTCCGGGGGA", "switch fluorescence ratio": 1.02}
{"sequence": "GTCCGTTAG", "switch fluorescence ratio": 1.01}
{"sequence": "GTCCTCGGAA", "switch fluorescence ratio": 1.73}
{"sequence": "GTCCTTTCGA", "switch fluorescence ratio": 1.1}
{"sequence": "GTCGAAATTT", "switch fluorescence ratio": 1.04}
{"sequence": "GTCGACACAT", "switch fluorescence ratio": 0.979}
{"sequence": "GTCGACCATC", "switch fluorescence ratio": 0.982}
{"sequence": "GTCGACCCGA", "switch fluorescence ratio": 1.02}
{"sequence": "GTCGACGTAA", "switch fluorescence ratio": 1.06}
{"sequence": "GTCGAGCTGT", "switch fluorescence ratio": 0.965}
{"sequence": "GTCGAGGGCA", "switch fluorescence ratio": 0.997}
{"sequence": "GTCGCAGGTA", "switch fluorescence ratio": 0.991}
{"sequence": "GTCGCGCATT", "switch fluorescence ratio": 1.01}
{"sequence": "GTCGCGTAGC", "switch fluorescence ratio": 0.995}
{"sequence": "GTCGCTCGTC", "switch fluorescence ratio": 0.99}
{"sequence": "GTCGCTGTG", "switch fluorescence ratio": 1.02}
{"sequence": "GTCGGAGAGG", "switch fluorescence ratio": 0.961}
{"sequence": "GTCGGAGAGT", "switch fluorescence ratio": 0.977}
{"sequence": "GTCGGAGGGC", "switch fluorescence ratio": 1.02}
{"sequence": "GTCGGCAGGA", "switch fluorescence ratio": 0.967}
{"sequence": "GTCGGCATTG", "switch fluorescence ratio": 0.951}
{"sequence": "GTCGGGCT", "switch fluorescence ratio": 0.991}
{"sequence": "GTCGGGGGAA", "switch fluorescence ratio": 1.01}
{"sequence": "GTCGGTTGAT", "switch fluorescence ratio": 0.941}
{"sequence": "GTCGTACAGG", "switch fluorescence ratio": 0.961}
{"sequence": "GTCGTAGACG", "switch fluorescence ratio": 1.04}
{"sequence": "GTCGTCGG", "switch fluorescence ratio": 1.12}
{"sequence": "GTCGTCGGGC", "switch fluorescence ratio": 1.05}
{"sequence": "GTCGTGCATT", "switch fluorescence ratio": 0.984}
{"sequence": "GTCGTGTGTC", "switch fluorescence ratio": 1.05}
{"sequence": "GTCGTTATCC", "switch fluorescence ratio": 1}
{"sequence": "GTCTAATGGC", "switch fluorescence ratio": 1.04}
{"sequence": "GTCTAGGCGA", "switch fluorescence ratio": 1.05}
{"sequence": "GTCTATCACT", "switch fluorescence ratio": 0.991}
{"sequence": "GTCTCAAAAT", "switch fluorescence ratio": 1.03}
{"sequence": "GTCTCCGTCG", "switch fluorescence ratio": 1.01}
{"sequence": "GTCTCGCGCA", "switch fluorescence ratio": 1.17}
{"sequence": "GTCTCGGCAG", "switch fluorescence ratio": 1.03}
{"sequence": "GTCTCTAAGC", "switch fluorescence ratio": 0.994}
{"sequence": "GTCTGAGATA", "switch fluorescence ratio": 0.988}
{"sequence": "GTCTGCTCGC", "switch fluorescence ratio": 1.01}
{"sequence": "GTCTGTGCGC", "switch fluorescence ratio": 0.982}
{"sequence": "GTCTGTGGGG", "switch fluorescence ratio": 0.986}
{"sequence": "GTCTTAGACT", "switch fluorescence ratio": 0.987}
{"sequence": "GTCTTATAAG", "switch fluorescence ratio": 0.982}
{"sequence": "GTCTTTGGGA", "switch fluorescence ratio": 0.97}
{"sequence": "GTGAAACTCA", "switch fluorescence ratio": 1.13}
{"sequence": "GTGAACTATG", "switch fluorescence ratio": 1}
{"sequence": "GTGAACTGAG", "switch fluorescence ratio": 1.01}
{"sequence": "GTGAAGAGAC", "switch fluorescence ratio": 0.982}
{"sequence": "GTGAAGTTGC", "switch fluorescence ratio": 1.02}
{"sequence": "GTGACATTCT", "switch fluorescence ratio": 1.02}
{"sequence": "GTGACGGGCT", "switch fluorescence ratio": 1.08}
{"sequence": "GTGACTCATT", "switch fluorescence ratio": 0.996}
{"sequence": "GTGACTCGA", "switch fluorescence ratio": 0.961}
{"sequence": "GTGACTTGCT", "switch fluorescence ratio": 0.975}
{"sequence": "GTGAGAAAAA", "switch fluorescence ratio": 1.1}
{"sequence": "GTGAGAGCCC", "switch fluorescence ratio": 0.983}
{"sequence": "GTGAGAGCCT", "switch fluorescence ratio": 1.01}
{"sequence": "GTGAGAGTAA", "switch fluorescence ratio": 1}
{"sequence": "GTGAGGCTTG", "switch fluorescence ratio": 0.97}
{"sequence": "GTGAGTACAG", "switch fluorescence ratio": 1.03}
{"sequence": "GTGAGTCCCT", "switch fluorescence ratio": 0.995}
{"sequence": "GTGAGTCGGT", "switch fluorescence ratio": 0.927}
{"sequence": "GTGAGTGTTG", "switch fluorescence ratio": 0.98}
{"sequence": "GTGAGTTTCT", "switch fluorescence ratio": 0.997}
{"sequence": "GTGATACAGC", "switch fluorescence ratio": 1.04}
{"sequence": "GTGATACATG", "switch fluorescence ratio": 0.988}
{"sequence": "GTGATAG", "switch fluorescence ratio": 1.41}
{"sequence": "GTGATCGTTT", "switch fluorescence ratio": 0.946}
{"sequence": "GTGATCTTA", "switch fluorescence ratio": 0.992}
{"sequence": "GTGATGCCGA", "switch fluorescence ratio": 0.962}
{"sequence": "GTGATTATTC", "switch fluorescence ratio": 1}
{"sequence": "GTGCAAGTTT", "switch fluorescence ratio": 1.03}
{"sequence": "GTGCAATGGA", "switch fluorescence ratio": 1.08}
{"sequence": "GTGCACGGGG", "switch fluorescence ratio": 1.02}
{"sequence": "GTGCAGAGCC", "switch fluorescence ratio": 0.968}
{"sequence": "GTGCAGTGTG", "switch fluorescence ratio": 1.02}
{"sequence": "GTGCATATGG", "switch fluorescence ratio": 1.04}
{"sequence": "GTGCATGGTG", "switch fluorescence ratio": 1.04}
{"sequence": "GTGCATGTTC", "switch fluorescence ratio": 1.04}
{"sequence": "GTGCCGGGGG", "switch fluorescence ratio": 1.02}
{"sequence": "GTGCCGGGTA", "switch fluorescence ratio": 1.02}
{"sequence": "GTGCCGTTTT", "switch fluorescence ratio": 0.986}
{"sequence": "GTGCCTAGGG", "switch fluorescence ratio": 0.975}
{"sequence": "GTGCCTAGTT", "switch fluorescence ratio": 1.01}
{"sequence": "GTGCCTTTTT", "switch fluorescence ratio": 0.97}
{"sequence": "GTGCGATGCA", "switch fluorescence ratio": 1.05}
{"sequence": "GTGCGCACCA", "switch fluorescence ratio": 0.996}
{"sequence": "GTGCGCCGCT", "switch fluorescence ratio": 1.07}
{"sequence": "GTGCGCTTTC", "switch fluorescence ratio": 1.02}
{"sequence": "GTGCGTAATT", "switch fluorescence ratio": 1.02}
{"sequence": "GTGCTAATAA", "switch fluorescence ratio": 1.02}
{"sequence": "GTGCTCAAAA", "switch fluorescence ratio": 0.999}
{"sequence": "GTGCTCAGAG", "switch fluorescence ratio": 0.999}
{"sequence": "GTGCTTGGGT", "switch fluorescence ratio": 0.988}
{"sequence": "GTGGACGGGC", "switch fluorescence ratio": 1.04}
